Experimental data reported in US9045506B2, “Diphosphonate compound and a method for preparing the same and an application of the same” (Chengdu Yunke Pharmaceutical Co., Ltd., priority 2010, dated 2015).
At least one read-out could not be matched to a standard name with certainty. Marks after values point to notes of the source that are not given here.

Experiments:
osteoblasts MG63 = assay: Osteoblast proliferation, MTT method; assay type: cell-based; details: MG63, n = 4, x ± s
osteoblasts = assay: Calcium deposition assay (alizarin red method); assay type: cell-based; details: 5 d, n = 4, x ± s
Procedure: Next, each well is added with 1 mL extract (extract preparation: 800 mL 10% acetic acid with 200 mL anhydrous ethyl alcohol), and extracted for 30 min-45 min, kept in dark, shaken slightly, the absorbance of 450 nm wavelength is measured and recorded. […] As alizarin red S and calcium are linear correlated, the calcium deposition is evaluated according to the alizarin red S concentration.

osteoclasts [1] = assay: Osteoclast cell formation, counting of TRAP staining positive cells; assay type: cell-based, Japanese White Rabbit; details: n = 6, x ± s
Procedure: (§1) The osteoclasts is cultured using a modified Chambers method, the new-born Japanese White Rabbit (1 week-age, provided by Experimental Animal Center of West China Medical Center of Sichuan University) is sacrificed by neck dislocation, and dipped in 75% ethanol for 5 min, long bones are taken out under sterile condition, and soft tissue, periosteum as well as osteoepiphysis on the bone surface are removed in D-Hanks balanced salt solution, clean the bone shaft with α-MEM 2 times, and then cut off the long bone longitudinally in α-MEM full media (containing 15% fetal calf serum, penicillin 100 U/mL, streptomycin […], 25 m MHEPES, pH 7.0-7.2), scrape the medullar cavity of the bone gently until it is clean, and use a pipette (5 mL syringe, 25 G syringe needle) to rinse the medullar cavity repeatedly with culture media, and then the rinse solution is collected and filtered with cell strainer to remove bone fragment, and centrifuged at 1000 rpm for 5 min, the precipitate is suspended by 10 mL α-MEM, a hematocytometer is used for cell counting, the cell density in suspension is adjusted to 1×10^7/mL, and inoculate the cells in 6-well plates, and co-cultured with glass slide or bone slice, after 60 min the culture media was replaced with α-MEM induction culture media (containing 15% fetal bovine serum, 10 nM 1, 25-(OH)2VitD3, penicillin 100 U/mL, streptomycin 100 μg/mL, 25 mM HEPES, pH 7.0-7.2), the culture media is replaced every 3 days.
Each group of osteoclasts is performed with tartrate-resistant acid phosphatase (TRAP) staining, observed in optical microscope, and the TRAP staining positive cells are counted.

osteoclasts [2] = assay: Osteoclastic absorption, resorption pit size on bone slices; assay type: cell-based, Japanese White Rabbit; details: 5 days' culture, n = 6, x ± s
Procedure: as §1

| SMILES | Cell proliferation (MTT method), absorbance value under 490 nm (osteoblasts MG63; 10^−5 mol/L, 24 h) | Cell proliferation (MTT method), absorbance value under 490 nm (osteoblasts MG63; 10^−5 mol/L, 48 h) | Cell proliferation (MTT method), absorbance value under 490 nm (osteoblasts MG63; 10^−5 mol/L, 72 h) | Cell proliferation (MTT method), absorbance value under 490 nm (osteoblasts MG63; 10^−7 mol/L, 24 h) | Cell proliferation (MTT method), absorbance value under 490 nm (osteoblasts MG63; 10^−7 mol/L, 48 h) | Cell proliferation (MTT method), absorbance value under 490 nm (osteoblasts MG63; 10^−7 mol/L, 72 h) | Cell proliferation (MTT method), absorbance value under 490 nm (osteoblasts MG63; 10^−9 mol/L, 24 h) | Cell proliferation (MTT method), absorbance value under 490 nm (osteoblasts MG63; 10^−9 mol/L, 48 h) | Cell proliferation (MTT method), absorbance value under 490 nm (osteoblasts MG63; 10^−9 mol/L, 72 h) | ARS concentration (osteoblasts; 10^−5 mol/L) [µg/mL] | calcium nodule size (osteoblasts; 10^−5 mol/L) [mm^2] | ARS concentration (osteoblasts; 10^−7 mol/L) [µg/mL] | calcium nodule size (osteoblasts; 10^−7 mol/L) | ARS concentration (osteoblasts; 10^−9 mol/L) [µg/mL] | calcium nodule size (osteoblasts; 10^−9 mol/L) | OC cell formation, TRAP staining positive cells counted (osteoclasts [1]; 10^−5 mol/L, 3 d) | OC cell formation, TRAP staining positive cells counted (osteoclasts [1]; 10^−5 mol/L, 5 d) | OC cell formation, TRAP staining positive cells counted (osteoclasts [1]; 10^−7 mol/L, 3 d) | OC cell formation, TRAP staining positive cells counted (osteoclasts [1]; 10^−7 mol/L, 5 d) | OC cell formation, TRAP staining positive cells counted (osteoclasts [1]; 10^−9 mol/L, 3 d) | further results |
| --- | --- | --- | --- | --- | --- | --- | --- | --- | --- | --- | --- | --- | --- | --- | --- | --- | --- | --- | --- | --- | --- |
| O=c1c2ccccc2sn1-c1ccc(CC(P(=O)(O)O)P(=O)(O)O)cc1 [SC-15, 4-(3-carbonylbenzo[d][1,2]sulfonazole-2(3H))-benzyl-methylene diphosphonic acid] | 0.331 ± 0.007 | 0.352 ± 0.006 | 0.308 ± 0.007 | 0.366 ± 0.004 | 0.433 ± 0.006 | 0.524 ± 0.011 | 0.395 ± 0.007 | 0.462 ± 0.008 | 0.688 ± 0.010 | 219 ± 11 | 0.94 ± 0.03 | 328 ± 20 | 1.01 ± 0.05 mm^2 | 399 ± 26 | 1.59 ± 0.17 mm^2 | 8 ± 3 | 7 ± 3 | 10 ± 3 | 11 ± 5 | 12 ± 5 | OC cell formation, TRAP staining positive cells counted (osteoclasts [1]; 10^−9 mol/L, 5 d): 13 ± 3; formation and size of resorption pit of the osteoclast (osteoclasts [2]; 10^−5 mol/L): 9.17 ± 3.47; formation and size of resorption pit of the osteoclast (osteoclasts [2]; 10^−7 mol/L): 81.92 ± 9.12; formation and size of resorption pit of the osteoclast (osteoclasts [2]; 10^−9 mol/L): 99.37 ± 8.43 |
| O=c1c2ccccc2[se]n1-c1ccc(CC(O)(P(=O)(O)O)P(=O)(O)O)cc1 [SC-2, 4-(3-carbonylbenzo[d][1,2]selenazole-2(3H))-benzyl-methylene-1-hydroxyl-methylene diphosphonic acid] | 0.351 ± 0.009 | 0.387 ± 0.005 | 0.317 ± 0.013 | 0.377 ± 0.006 | 0.431 ± 0.009 | 0.701 ± 0.008 | 0.365 ± 0.008 | 0.412 ± 0.007 | 0.713 ± 0.013 | 213 ± 11 | 1.01 ± 0.05 | 415 ± 23 | 1.99 ± 0.20* mm^2 | 440 ± 22 | 2.47 ± 0.18** mm^2 | 8 ± 3 | 3 ± 2 | 13 ± 5 | 11 ± 4 | 10 ± 3 | OC cell formation, TRAP staining positive cells counted (osteoclasts [1]; 10^−9 mol/L, 5 d): 14 ± 5; formation and size of resorption pit of the osteoclast (osteoclasts [2]; 10^−5 mol/L): 10.42 ± 2.16; formation and size of resorption pit of the osteoclast (osteoclasts [2]; 10^−7 mol/L): 43.52 ± 7.59; formation and size of resorption pit of the osteoclast (osteoclasts [2]; 10^−9 mol/L): 91.23 ± 8.31 |
